# Assay results published in the supplement of paper PMC8728848.
# This is one part of the list.
# B1: Cohesin-mDC-ASGPR (Macaca mulatta) (protein)
# chain: LDITSHHHHHHDDLDAVRIKVDTVNAKPGDTVRIPVRFSGIPSKGIANCDFVYSYDPNVLEIIEIEPGDIIVDPNPDKSFDTAVYPDRKIIVFLFAEDSGTGAYAITKDGVFATIVAKVKEGAPNGLSVIKFVEVGGFANNDLVEQKTQFFDGGVNVGDTTEPATPTTPVTTPTTTDDLDAASSQNSKFQRDLVTLRTDFSNFTSNTVAEIQALTSQGSSVEEMIASLKAEVEVIKQEQQAVHSEMLLRVQRLMQDLNKLTCQVATLKNNASTERTCCPVNWVEHQDSCYWFSRSGMPWAEAEKHCQLENAHLVVINSREEQNFVQEHLSFAYTWMGLSDREGAWKWVDGTDYETGFQNWKPGQPDDWQGHGLGGGEDCAHFHPDGRWNDDVCQRPYYWVCEAGLTQASQESH
# How the values were obtained:
# Test in all cases: glycan array binding signal (z-score within array); higher = stronger binding
# Settings in all cases: glycan notation: IUPAC condensed, linker removed
# [1] = molecular target: Gal(b1-4)GlcNAc(b1-3)Gal(b1-4)GlcNAc(b1-3)Gal(b1-4)GlcNAc(b1-3)Gal(b1-4)GlcNAc(b1-2)Man(a1-3)[Gal(b1-4)GlcNAc(b1-3)Gal(b1-4)GlcNAc(b1-3)Gal(b1-4)GlcNAc(b1-3)Gal(b1-4)GlcNAc(b1-2)Man(a1-6)]Man(b1-4)GlcNAc(b1-4)[Fuc(a1-6)]GlcNAc
# How it was run: (§1)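 The binding signal is a Z-score computed within each array. Data were drawn from 3228 arrays in the Consortium for Functional Glycomics database, restricted to those with a known protein sequence. Scores were averaged over arrays of the same protein sequence at different concentrations or buffers, and over linkers, and negative values can be taken as non-binding.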
# [2] = molecular target: Gal(b1-4)GlcNAc(b1-3)Gal(b1-4)GlcNAc(b1-3)Gal(b1-4)GlcNAc(b1-3)Gal(b1-4)GlcNAc(b1-2)[Gal(b1-4)GlcNAc(b1-3)Gal(b1-4)GlcNAc(b1-3)Gal(b1-4)GlcNAc(b1-3)Gal(b1-4)GlcNAc(b1-6)]Man(a1-6)[Gal(b1-4)GlcNAc(b1-3)Gal(b1-4)GlcNAc(b1-3)Gal(b1-4)GlcNAc(b1-3)Gal(b1-4)GlcNAc(b1-2)Man(a1-3)]Man(b1-4)GlcNAc(b1-4)[Fuc(a1-6)]GlcNAc
# How it was run: as §1
# [3] = molecular target: Gal(b1-4)GlcNAc(b1-3)Gal(b1-4)GlcNAc(b1-3)Gal(b1-4)GlcNAc(b1-3)Gal(b1-4)GlcNAc(b1-3)Gal(b1-4)GlcNAc(b1-2)Man(a1-3)[Gal(b1-4)GlcNAc(b1-3)Gal(b1-4)GlcNAc(b1-3)Gal(b1-4)GlcNAc(b1-3)Gal(b1-4)GlcNAc(b1-3)Gal(b1-4)GlcNAc(b1-2)Man(a1-6)]Man(b1-4)GlcNAc(b1-4)GlcNAc
# How it was run: as §1
# [4] = molecular target: Gal(b1-4)GlcNAc(b1-3)Gal(b1-4)GlcNAc(b1-3)Gal(b1-4)GlcNAc(b1-3)Gal(b1-4)GlcNAc(b1-3)Gal(b1-4)GlcNAc(b1-2)Man(a1-3)[Gal(b1-4)GlcNAc(b1-3)Gal(b1-4)GlcNAc(b1-3)Gal(b1-4)GlcNAc(b1-3)Gal(b1-4)GlcNAc(b1-3)Gal(b1-4)GlcNAc(b1-2)Man(a1-6)]Man(b1-4)GlcNAc(b1-4)[Fuc(a1-6)]GlcNAc
# How it was run: as §1
# [5] = molecular target: Gal(b1-4)GlcNAc(b1-3)Gal(b1-4)GlcNAc(b1-3)Gal(b1-4)GlcNAc(b1-3)Gal(b1-4)GlcNAc(b1-3)Gal(b1-4)GlcNAc(b1-2)[Gal(b1-4)GlcNAc(b1-3)Gal(b1-4)GlcNAc(b1-3)Gal(b1-4)GlcNAc(b1-3)Gal(b1-4)GlcNAc(b1-3)Gal(b1-4)GlcNAc(b1-6)]Man(a1-6)[Gal(b1-4)GlcNAc(b1-3)Gal(b1-4)GlcNAc(b1-3)Gal(b1-4)GlcNAc(b1-3)Gal(b1-4)GlcNAc(b1-3)Gal(b1-4)GlcNAc(b1-2)Man(a1-3)]Man(b1-4)GlcNAc(b1-4)[Fuc(a1-6)]GlcNAc
# How it was run: as §1
# [6] = molecular target: Gal(b1-4)GlcNAc(b1-3)Gal(b1-4)GlcNAc(b1-3)Gal(b1-4)GlcNAc(b1-3)Gal(b1-4)GlcNAc(b1-3)Gal(b1-4)GlcNAc(b1-3)Gal(b1-4)GlcNAc(b1-2)Man(a1-3)[Gal(b1-4)GlcNAc(b1-3)Gal(b1-4)GlcNAc(b1-3)Gal(b1-4)GlcNAc(b1-3)Gal(b1-4)GlcNAc(b1-3)Gal(b1-4)GlcNAc(b1-3)Gal(b1-4)GlcNAc(b1-2)Man(a1-6)]Man(b1-4)GlcNAc(b1-4)GlcNAc
# How it was run: as §1
# [7] = molecular target: Gal(b1-4)GlcNAc(b1-3)Gal(b1-4)GlcNAc(b1-3)GalNAc
# How it was run: as §1
# [8] = molecular target: Gal(b1-4)GlcNAc(b1-3)Gal(b1-4)GlcNAc(b1-3)[Gal(b1-4)GlcNAc(b1-3)Gal(b1-4)GlcNAc(b1-6)]GalNAc
# How it was run: as §1
# [9] = molecular target: Gal(b1-4)GlcNAc(b1-3)Gal(b1-4)GlcNAc(b1-6)[Gal(b1-3)]GalNAc
# How it was run: as §1
# [10] = molecular target: Gal(b1-4)GlcNAc(b1-3)Gal(b1-4)[Fuc(a1-3)]GlcNAc(b1-3)Gal(b1-4)[Fuc(a1-3)]GlcNAc
# How it was run: as §1
# [11] = molecular target: Gal(b1-4)GlcNAc(b1-3)GalNAc
# How it was run: as §1
# [12] = molecular target: Gal(b1-4)GlcNAc(b1-3)[Fuc(a1-3)GlcNAc(b1-6)]Gal(b1-4)Glc
# How it was run: as §1
# [13] = molecular target: Gal(b1-4)GlcNAc(b1-3)[Gal(b1-4)GlcNAc(b1-6)]Gal(b1-4)GlcNAc
# How it was run: as §1
# [14] = molecular target: Gal(b1-4)GlcNAc(b1-3)[GlcNAc(b1-6)]Gal(b1-4)GlcNAc
# How it was run: as §1
# [15] = molecular target: Gal(b1-4)GlcNAc(b1-6)Gal(b1-4)GlcNAc
# How it was run: as §1
# [16] = molecular target: Gal(b1-4)GlcNAc(b1-6)GalNAc
# How it was run: as §1
# [17] = molecular target: Gal(b1-4)GlcNAc(b1-6)[Gal(b1-3)]GalNAc
# How it was run: as §1
# [18] = molecular target: Gal(b1-4)GlcNAc(b1-6)[Gal(b1-4)GlcNAc(b1-3)]GalNAc
# How it was run: as §1
# Gal(b1-4)GlcNAc6P = molecular target: Gal(b1-4)GlcNAc6P
# How it was run: as §1
# Gal(b1-6)Gal = molecular target: Gal(b1-6)Gal
# How it was run: as §1
# Gal3S(b1-3)GalNAc = molecular target: Gal3S(b1-3)GalNAc
# How it was run: as §1
# Gal3S(b1-3)GlcNAc = molecular target: Gal3S(b1-3)GlcNAc
# How it was run: as §1
# [19] = molecular target: Gal3S(b1-3)[Fuc(a1-4)]GlcNAc
# How it was run: as §1
# Gal3S(b1-4)Glc = molecular target: Gal3S(b1-4)Glc
# How it was run: as §1
# Gal3S(b1-4)Glc6S = molecular target: Gal3S(b1-4)Glc6S
# How it was run: as §1
# Gal3S(b1-4)GlcNAc = molecular target: Gal3S(b1-4)GlcNAc
# How it was run: as §1
# [20] = molecular target: Gal3S(b1-4)[Fuc(a1-3)]Glc6S
# How it was run: as §1
# [21] = molecular target: Gal3S(b1-4)[Fuc(a1-3)]GlcNAc
# How it was run: as §1
# [22] = molecular target: Gal3S(b1-4)[Fuc(a1-3)]GlcNAc6S
# How it was run: as §1
# Gal3S4S(b1-4)GlcNAc = molecular target: Gal3S4S(b1-4)GlcNAc
# How it was run: as §1
# Gal3S6S(b1-4)GlcNAc = molecular target: Gal3S6S(b1-4)GlcNAc
# How it was run: as §1
# Gal3S6S(b1-4)GlcNAc6S = molecular target: Gal3S6S(b1-4)GlcNAc6S
# How it was run: as §1
# Gal4S(b1-4)GlcNAc = molecular target: Gal4S(b1-4)GlcNAc
# How it was run: as §1
# Gal4S6S(b1-4)GlcNAc = molecular target: Gal4S6S(b1-4)GlcNAc
# How it was run: as §1
# Gal6P(b1-4)GlcNAc = molecular target: Gal6P(b1-4)GlcNAc
# How it was run: as §1
# Gal6S(b1-3)GlcNAc = molecular target: Gal6S(b1-3)GlcNAc
# How it was run: as §1
# Gal6S(b1-3)GlcNAc6S = molecular target: Gal6S(b1-3)GlcNAc6S
# How it was run: as §1
# Gal6S(b1-4)Glc = molecular target: Gal6S(b1-4)Glc
# How it was run: as §1
binder,measurement,setting,value
B1,glycan array binding signal (z-score),[1],-0.343
same,glycan array binding signal (z-score),[2],-0.319
same,glycan array binding signal (z-score),[3],-0.297
same,glycan array binding signal (z-score),[4],-0.329
same,glycan array binding signal (z-score),[5],-0.379
same,glycan array binding signal (z-score),[6],-0.397
same,glycan array binding signal (z-score),[7],-0.376
same,glycan array binding signal (z-score),[8],-0.341
same,glycan array binding signal (z-score),[9],-0.379
same,glycan array binding signal (z-score),[10],-0.186
same,glycan array binding signal (z-score),[11],-0.378
same,glycan array binding signal (z-score),[12],-0.424
same,glycan array binding signal (z-score),[13],-0.432
same,glycan array binding signal (z-score),[14],-0.429
same,glycan array binding signal (z-score),[15],-0.396
same,glycan array binding signal (z-score),[16],1.57
same,glycan array binding signal (z-score),[17],0.521
same,glycan array binding signal (z-score),[18],-0.351
same,glycan array binding signal (z-score),Gal(b1-4)GlcNAc6P,-0.414
same,glycan array binding signal (z-score),Gal(b1-6)Gal,-0.366
same,glycan array binding signal (z-score),Gal3S(b1-3)GalNAc,-0.35
same,glycan array binding signal (z-score),Gal3S(b1-3)GlcNAc,-0.398
same,glycan array binding signal (z-score),[19],-0.357
same,glycan array binding signal (z-score),Gal3S(b1-4)Glc,-0.159
same,glycan array binding signal (z-score),Gal3S(b1-4)Glc6S,-0.276
same,glycan array binding signal (z-score),Gal3S(b1-4)GlcNAc,-0.309
same,glycan array binding signal (z-score),[20],-0.409
same,glycan array binding signal (z-score),[21],-0.417
same,glycan array binding signal (z-score),[22],-0.274
same,glycan array binding signal (z-score),Gal3S4S(b1-4)GlcNAc,-0.37
same,glycan array binding signal (z-score),Gal3S6S(b1-4)GlcNAc,-0.345
same,glycan array binding signal (z-score),Gal3S6S(b1-4)GlcNAc6S,-0.364
same,glycan array binding signal (z-score),Gal4S(b1-4)GlcNAc,-0.407
same,glycan array binding signal (z-score),Gal4S6S(b1-4)GlcNAc,-0.323
same,glycan array binding signal (z-score),Gal6P(b1-4)GlcNAc,-0.405
same,glycan array binding signal (z-score),Gal6S(b1-3)GlcNAc,-0.427
same,glycan array binding signal (z-score),Gal6S(b1-3)GlcNAc6S,-0.329
same,glycan array binding signal (z-score),Gal6S(b1-4)Glc,-0.39
